Whole data set: some 110,000 compounds, median “z-score” near -0.1, cut for the highest 2% near 2. Some of the results follow. Active and inactive are the calls of the source.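 The calls were made as follows: active = z-score in the third read window above 3 or below -3; inactive = the rest.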
Biological target: Metabotropic glutamate receptor 8 (Rattus norvegicus) (UniProt P70579)
Assay: rat mGluR8 modulators via GIRK flux, primary screen, cell-based, thallium flux, HTS (AID 488969)
Details: HEK293 rat mGluR8, GIRK (G protein-gated inwardly rectifying potassium channel) thallium flux, FluoZin2; at 10 µM; stronger effect = higher value; submaximal glutamate (EC20) added with thallium

UniProt P70579, sequence (P70579 whole entry, looked up): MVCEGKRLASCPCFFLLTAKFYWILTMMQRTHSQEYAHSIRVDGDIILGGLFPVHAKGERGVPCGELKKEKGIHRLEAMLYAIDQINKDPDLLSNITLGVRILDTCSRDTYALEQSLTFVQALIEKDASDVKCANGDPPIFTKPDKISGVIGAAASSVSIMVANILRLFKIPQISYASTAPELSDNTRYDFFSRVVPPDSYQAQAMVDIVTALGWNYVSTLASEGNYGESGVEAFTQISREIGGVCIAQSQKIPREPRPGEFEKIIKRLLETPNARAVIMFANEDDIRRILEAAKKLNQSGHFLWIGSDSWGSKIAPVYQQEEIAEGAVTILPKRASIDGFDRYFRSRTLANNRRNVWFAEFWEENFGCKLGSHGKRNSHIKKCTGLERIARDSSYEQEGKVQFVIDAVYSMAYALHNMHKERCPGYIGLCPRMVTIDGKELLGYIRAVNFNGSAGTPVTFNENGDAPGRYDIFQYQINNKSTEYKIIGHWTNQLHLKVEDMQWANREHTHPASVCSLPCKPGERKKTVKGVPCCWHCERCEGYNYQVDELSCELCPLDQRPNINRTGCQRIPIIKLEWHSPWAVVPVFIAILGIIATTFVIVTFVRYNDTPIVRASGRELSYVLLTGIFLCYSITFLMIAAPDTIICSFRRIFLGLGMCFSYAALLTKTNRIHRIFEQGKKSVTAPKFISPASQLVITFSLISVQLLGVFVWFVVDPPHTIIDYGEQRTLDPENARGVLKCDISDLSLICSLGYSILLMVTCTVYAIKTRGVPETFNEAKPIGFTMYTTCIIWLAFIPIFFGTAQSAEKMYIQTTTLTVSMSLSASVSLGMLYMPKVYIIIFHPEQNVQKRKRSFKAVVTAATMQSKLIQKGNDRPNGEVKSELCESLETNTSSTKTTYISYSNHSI

Point of comparison: `COc1cc2c(cc1NC(=O)c1ccco1)CCCC2`, z-score -0.397. Against it:
- CCCOc1ccc(C2C(C(=O)c3ccc(C)o3)=C(O)C(=O)N2CCN2CCOCC2)cc1OC (stereo not given) — lower, -0.474
- Cc1cc(SCc2cc(=O)n3ccsc3n2)nc2ccccc12 — higher, -0.273
- CCN(Cc1ccccc1)c1ccc(/C=N/NC(=S)NC(C)C)cc1 — higher, 0.197
- CCOc1ccc(CN2C(=O)c3ccccc3C2C(=O)NCc2cccnc2)cc1 (stereo not given) — higher, -0.086
- O=C(Nc1nc2c(s1)CCCC2)c1cccc(S(=O)(=O)N2CCCc3ccccc32)c1 — higher, -0.0686
- O=C(CS(=O)(=O)c1cn(Cc2ccc(F)cc2)c2ccccc12)N1CCCCC1 — higher, -0.178
- O=C(CSCc1ccccc1)N/N=C/c1cc2c(cc1Br)OCO2 — higher, -0.2
- O=C(CN1C(=O)c2cccc3cccc1c23)Nc1ccc(S(=O)(=O)N2CCOCC2)cc1 — higher, -0.376
- CCCc1cc(=O)[nH]c(-n2[nH]c3c(c2=O)CCCC3)n1 — lower, -0.412
- O=S(=O)(/N=C(/c1ccc(Cl)cc1)N1CCOCC1)c1ccc(Cl)cc1 — higher, -0.196
- O=C(NCCOc1ccccc1)c1n[nH]c(=O)c2ccccc12 — lower, -0.471
- O=C1C(=O)N(Cc2cccnc2)C(c2ccccn2)/C1=C(/O)c1ccc(F)cc1 (stereo not given) — higher, -0.0829
- CC(CN1CCCCC1)OC(=O)c1ccc2c(c1)OCO2 (stereo not given) — higher, 1.49
- COc1cccc(OC)c1OCCCOc1ccc([N+](=O)[O-])cc1Cl — higher, -0.353
- COC(=O)c1nc(NC(=O)c2ccccc2Cl)n[nH]1 — higher, 0.32
- CC1CC(=O)C2=C(C1)Nc1ccccc1N=C2 (stereo not given) — higher, 0.512
- COC(=O)C1=C(C)NC2=C(C(=O)CC(c3cccs3)C2)C1c1ccsc1 (stereo not given) — lower, -0.448
- COC(=O)c1ccc(OC(=O)C2CC(=O)N(c3ccc(C)cc3C)C2)cc1 (stereo not given) — lower, -0.403
- C=CCN1C(=O)c2oc3ccccc3c(=O)c2C1c1ccc(O)c(OC)c1 (stereo not given) — higher, -0.251
- COc1cc(NS(=O)(=O)c2ccc(N/C=C\C(=O)c3ccc(F)cc3)cc2)nc(OC)n1 — higher, 0.107
- Cc1ccc(Nc2nc(CSc3nnc(-c4cccnc4)n3-c3ccccc3C)cs2)cc1 — lower, -0.962
- C#CCn1c(S(=O)(=O)Cc2ccc(OC)cc2)nc(-c2ccccc2)c1-c1ccccc1 — higher, -0.243
- COc1cc(C(C(=O)NC2CCCCC2)N(Cc2cccs2)C(=O)Cc2c[nH]c3ccccc23)cc(OC)c1OC (stereo not given) — higher, -0.263
- O=C(COc1ccccc1O)N1CCN(C(=O)c2ccco2)CC1 — lower, -1.24
- CC(C)CNC(=S)Nc1ccc(Oc2ccccc2)cc1 — higher, 2.69
- CCOC(=O)Cc1nn2c(=O)cc(C)nc2s1 — higher, -0.16
- S=C(c1cn(CCOc2ccccc2)c2ccccc12)N1CCCC1 — higher, 0.0222
- CCCn1c(SCC(=O)NCCc2ccccc2)nnc1-c1ccco1 — higher, -0.175
- CCc1ccc(Nc2nc3ccccc3c(=O)s2)cc1 — higher, 2.82
- Cc1ccc(-n2ncc3c(=O)n(CC(=O)NC4CCCCC4)cnc32)cc1 — higher, 0.35
- COc1ccc2oc(-c3cccc(NC(=O)CSc4ccc(Cl)cc4)c3)nc2c1 — higher, -0.12
- CCCN1C(=O)/C(=N\OCC(=O)Nc2ccc(C(C)C)cc2)c2ccccc21 — higher, -0.00981
- O=C1N2CCSC2=NC1(Nc1ccccn1)C(F)(F)F (stereo not given) — higher, 0.113
- Cc1nnc(SCCn2c(N(C)Cc3ccccc3)nc3c2c(=O)[nH]c(=O)n3C)s1 — lower, -0.534
- O=C(O)C1CCCN1c1ncnc2ccccc12 (stereo not given) — higher, 0.93
- O=C(NCc1cccs1)C1CCCN(S(=O)(=O)c2cnc[nH]2)C1 (stereo not given) — higher, 0.111
- COc1ccc(S(=O)(=O)N(CC(=O)NCc2ccco2)c2ccccc2)cc1 — lower, -0.522
- COc1ccc(C(NC(=O)c2c(F)c(F)c(F)c(F)c2F)c2ccccc2)cc1 (stereo not given) — lower, -0.423
- CCCOc1ccc(/C=N/Nc2ccccc2[N+](=O)[O-])c(OCCC)c1 — higher, 0.276
- Cc1[nH]c2ccccc2c1C1=NNC(=Nc2ccc(F)cc2)SC1 — higher, 0.418
- CC(C)(Nc1ccccc1)C(=O)c1ccccc1 — higher, 0.0928
- NC(=O)C1(N2CCCCC2)CCN(c2ccc3nnc(-c4ccccc4)n3n2)CC1 — lower, -0.501
- O=C(/C=C/c1ccccc1)N1c2ccccc2Sc2ccc(C(F)(F)F)cc21 — higher, -0.0208
- Cc1ccc(S(=O)(=O)N=Nc2c(O)[nH]c3ccccc23)cc1C — higher, 0.107
- COc1ccc(CCn2c(C)ccc2C)cc1OC — higher, -0.0502
- Cc1ccc2cc(C3CC(c4ccco4)=NN3S(=O)(=O)c3ccccc3)c(Cl)nc2c1 (stereo not given) — higher, 0.136
- Cc1ccc(C)c(NC(=O)c2ccc(OC(=O)c3ccco3)cc2)c1 — higher, 0.873
- Cn1c(CN2CCOCC2)nnc1SCC(=O)Nc1nccs1 — higher, -0.0781
- COc1ccc(C(=O)NN2CCCCC2)cc1OC — higher, -0.242
- O=C(CCCCCN1C(=O)c2ccccc2C1=O)Nc1ccc(F)cc1 — higher, -0.0499
- CCCOC(=O)C1=C(C)OC23OC(N)=C(C#N)C12C(=O)c1ccccc13 (stereo not given) — lower, -2.16
- Cc1[nH]c2ccccc2c1C(=O)COC(=O)c1c(-c2ccccc2)noc1C — higher, -0.266
- O=C(CCC(=O)c1cccs1)NCc1ccc(Cl)cc1 — higher, -0.139
- O=C(COC(=O)C12CC3CC(CC(C3)C1)C2)NCCCc1ccccc1 — higher, -0.0873
- COc1ccc(S(=O)(=O)N(C)CC(=O)Nc2ccc3c(c2)OCCO3)cc1OC — higher, -0.0274
- O=C(NCCCN1CCCCC1)C1CCC(=O)N1CCc1ccccc1 (stereo not given) — higher, -0.0886
- O=C(Cc1c(O)c2ccccc2[nH]c1=O)NCc1ccccc1 — higher, -0.314
- COCCNC(=O)C1CC(=O)N(C2CCCCC2)C1 (stereo not given) — higher, 0.736
- CCCC1=NN(c2ccc([N+](=O)[O-])cc2)C(=O)/C1=C/N(C)C — lower, -2.2
- CC(=O)OC1COC(N2CCc3cc(Br)c([N+](=O)[O-])cc32)C(OC(C)=O)C1OC(C)=O (stereo not given) — higher, -0.0187
- CCc1nc(NCC2CCCO2)c2oc3ccccc3c2n1 (stereo not given) — higher, 0.138
- CC1(O)CC(=O)N(c2ccccc2)O1 (stereo not given) — higher, -0.00398
- CCCn1c(-c2ccc(OC)cc2)nc2c(=O)n(C)c(=O)[nH]c21 — higher, -0.354
- CCCCNC(=O)c1onc(CSc2ccccc2CC)c1C(=O)O — higher, -0.361
- O=C(CSc1ccccc1C(=O)NCc1ccccc1)NC12CC3CC(CC(C3)C1)C2 — higher, -0.189
- O=c1[nH]cnc2c([N+](=O)[O-])cccc12 — higher, -0.108
- COc1ccccc1N1CCN(C(=O)CSc2nc(-c3ccccc3)cc(=O)[nH]2)CC1 — lower, -0.594
- O=C(CSc1nc2ccccc2[nH]1)N1CCN(c2ccc(F)cc2)CC1 — higher, -0.216
- CC(=O)Nc1ccc(NC(=O)CSCc2cnn(-c3ccccc3)c2-n2cccc2)cc1 — higher, -0.225
- C=CCNC(=O)C1CC(=O)N(c2ccc(C)cc2)C1 (stereo not given) — higher, 0.146
- Cc1cccc(NC(=O)CC2Nc3cccc4cccc(c34)NC2=O)c1 (stereo not given) — higher, -0.127
- N#CC1=C(N)SC(N)=C(C#N)C1c1ccc([N+](=O)[O-])cc1 — higher, -0.183
- CCOc1ccc(C(=O)N/N=C/c2cc(Cl)ccc2[N+](=O)[O-])cc1 — higher, -0.183
- O=C(Oc1ccc2c(=O)c(Cl)coc2c1)c1ccncc1 — higher, -0.0163
- Cc1ccccc1Cn1c(=N)n(CC(=O)c2ccco2)c2ccccc21 — higher, 2.17
- NNc1nc(NCc2ccccc2)nc(N2CCOCC2)n1 — higher, 0.747
- COCC(=O)N(C)c1nnc(-c2ccc([N+](=O)[O-])cc2)s1 — higher, 0.146
- CCOC(=O)COc1ccc(S(=O)(=O)NCCC2=CCCCC2)cc1 — lower, -0.61
- CCC(=O)N1CCC(c2ccc(OC)cc2)=N1 — higher, -0.0561
- COc1ccc(OC)c2sc(NC(=O)c3ccc(S(=O)(=O)N4CCOCC4)cc3)nc12 — higher, -0.091
- [O-]/[N+](=C/c1ccc(F)cc1)c1ccc(Cl)cc1 — higher, 0.577
- Cc1c(NC(=O)Cn2nc(C(=O)O)c3ccccc3c2=O)c(=O)n(-c2ccccc2)n1C — lower, -1.03
- CC(C)NC(=O)NC(=O)COC(=O)Cc1ccsc1 — higher, 0.506
- NC(=O)c1cc(-c2ccccc2)nc(N2CCOCC2)n1 — lower, -0.411
- CCOC(=O)CNC(=O)C(=O)c1c(O)[nH]c2ccccc12 — higher, 0.0297
- O=C(NC(NC(=S)Nc1cc(Cl)ccc1Cl)C(Cl)(Cl)Cl)c1ccco1 (stereo not given) — higher, 0.272
- CC(C)OC(=O)c1nn2c(C(F)(F)F)cc(-c3ccco3)nc2c1Cl — higher, -0.261
- CCOc1ccccc1N(CC(=O)NC1CCCCC1)C(=O)CNC(=O)c1ccco1 — lower, -1.38
- Cc1ccc(OCCSc2nnc(-c3ccncc3)n2C)cc1 — higher, -0.157
- O=C(c1cccc(F)c1)N1CCN(C2CCCCC2)CC1 — higher, -0.0609
- O=C(CSCc1cnn(-c2ccccc2)c1-n1cccc1)NCc1ccc2c(c1)OCO2 — higher, 0.533
- CC(C)OC(=O)/C(C#N)=C/c1ccc(-c2ccc(SC(F)F)cc2)o1 — higher, 0.111
- CCCn1nnnc1NCc1ccc(N2CCCC2)cc1 — higher, -0.208
- O=C(CCn1cccc1)Nc1cccc(F)c1 — higher, -0.319
- Cn1c(NCc2cccs2)nc2ccccc21 — higher, 0.413
- O=C1c2cccc3c([N+](=O)[O-])ccc(c23)C(=O)N1c1ccccn1 — lower, -0.626
- CS(=O)(=O)N(CC(=O)N1CCN(Cc2ccccc2)CC1)Cc1ccccc1 — higher, 0.0771
- O=C(O)C1CCCCN1S(=O)(=O)c1ccccc1 (stereo not given) — higher, -0.157
- CN1c2ccccc2N(C)C1(C)c1cccc2ccccc12 — higher, -0.24
- CCN=C1SC(CC(=O)Nc2ccc(N3CCOCC3)cc2)C(=O)N1CC (stereo not given) — higher, 0.836
- COc1ccc(CCN2CN(S(=O)(=O)c3ccc(OC)cc3)c3nc4ccccc4nc32)cc1 — higher, 0.00814
- CCCCCN1C2=NCCN2c2ccccc21 — higher, 0.394
- CCOC(=O)C1=C(CS(=O)(=O)c2ccccc2)NC(=O)NC1c1ccccc1OCC (stereo not given) — higher, 1.31
- CCOC(=O)CCSc1nc(C)cc(C(F)(F)F)c1C#N — higher, 1.25
- Cc1ccc(C(=O)CSc2nnc(-c3cccs3)n2C)o1 — lower, -0.505
- CC(=O)Nc1ccc(C(=O)Nc2ccc3c(c2)OCO3)cc1 — lower, -0.414
- O=C(CN1C(=O)C2C3C=CC(C3)C2C1=O)NCc1ccccc1 (stereo not given) — higher, 0.384
- COc1cc(-c2nc3c[n+](CC(=O)c4ccccc4)ccc3n2C)cc(OC)c1OC — higher, -0.235

With `CN1CCN(CC(=O)N2c3ccccc3C(C)(c3ccc(Cl)cc3)CC2(C)C)CC1` (stereo not given) the z-score was active: 3.21.
